From PubChem BioAssay AID662 (National Center for Advancing Translational Sciences (NCATS), 2007)
Hit rate of the full screen: of about 71,000 compounds, about 1,800 (2.5%) were called active. The shares of active, inactive and inconclusive entries below differ from those in the screen. The call rests on the fitted dose curve; in most records, active means well fitted activation curve with a large enough effect in the signal ratio, with a control signal flat (not every such curve was filed as active); inconclusive means small, poorly fitted or top-dose-only effect, or effect the other way, or a change in a side signal; inactive means flat fitted curve, though single readings scatter; the % refers to the signal ratio. Potencies of inconclusive entries are doubtful fits and often do not repeat.

experiment: Cell signaling CRE-BLA (Fsk stim); details: CHO CRE-bla reporter (cAMP response element driving beta-lactamase), forskolin EC10, beta-lactamase ratio; activity change, negative = inhibition: at 38.2 µM (top of the series) unless noted; on activity change, negative = inhibition: % of control where 0% means no effect
Method in brief: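 qHTS titration format; CRE-bla CHO reporter; stimulus EC10 NKH 477, a water-soluble forskolin. Read: CCF4 460/530 nm ratio. Potency expressed as AC50 for activators or inhibitors.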
Potency means the concentration at half of the fitted maximal effect; tags describe the fitted curve by direction and shape.

Q: Which “activity change, negative = inhibition” value does the source give for `CC(C)c1nnc(NC(=O)CCC(=O)Nc2ccc(F)cc2)s1` here?
A: inactive: 10.2%

Q: Which activity change, negative = inhibition does the source give for `CC(=O)Oc1c(C)cc(O)c2ccccc12` here?
A: inconclusive: -13.3%

Q: For `CCCCCSc1nnc(C)c(=O)[nH]1`, which activity change, negative = inhibition is on record?
A: inconclusive: -14.1%

Q: For `CN1CC(=O)N(CCOc2ccccc2)C1=O`, which activity change, negative = inhibition is on record?
A: inconclusive: -0.825%

Q: With `Clc1cccc(-c2cc3nc4c(c(N5CCOCC5)n3n2)CCCC4)c1` as the molecule, how does the activity change, negative = inhibition read?
A: inconclusive: 16.1%

Q: For `COc1ccc(N2CCN(C(=O)c3ccc4c(=O)n(CC5CCCO5)c(=O)[nH]c4c3)CC2)cc1` (centres undefined), which activity change, negative = inhibition is on record?
A: inconclusive: 12%

Q: For `CC12CCC(C(=O)Nc3cccnc3)(CC1=O)C2(C)C` (centres undefined), which activity change, negative = inhibition is on record?
A: inconclusive: 13.3%

Q: For `CN1C(=O)c2ccccc2C(C(=O)O)C1c1cn(C)c2ccccc12` (centres undefined), which activity change, negative = inhibition is on record?
A: inconclusive: -17.7%

Q: Which Potency does the source give for `COC(=O)c1ccc(CSc2nc3scc(-c4cccs4)c3c(=O)[nH]2)o1` here?
A: inconclusive: 10 µM [rising, single point]

Q: With `CCCCNC(=O)C(c1ccc(OCC(=O)OC)c(C(=O)OC)c1)N(CCC1=CCCCC1)C(=O)CCCCCN1C(=O)NC(c2ccc(-c3ccccc3)cc2)C(C(=O)OCc2ccccc2)=C1C` (centres undefined) as the molecule, how does the “activity change, negative = inhibition” value read?
A: inactive: 8.54%

Q: For `CC(C)=C1C(=O)C(c2ccccc2)=C2CN3C(=O)N(CCc4ccccc4)C(=O)[C@]3(Cc3ccccc3)[C@H]21`, which “activity change, negative = inhibition” value is on record?
A: inactive: -6.48%

Q: With `CCNc1ncc2nc(CCc3ccccc3)c(=O)n(C)c2n1` as the molecule, how does the Potency read?
A: active: 12.6 µM

Q: Which activity change, negative = inhibition does the source give for `CC(C)NC(=O)CN(c1cccc(Br)c1)S(C)(=O)=O` here?
A: inconclusive: -5.88%

Q: Which activity change, negative = inhibition does the source give for `Cc1c(CNCc2cccs2)c(C(=O)O)c(C)n1Cc1ccccc1` here?
A: inconclusive: 2.23%

Q: Which Potency does the source give for `CCCC(=O)c1c(NC(C)C)cc(C)oc1=O` here?
A: active: 12.6 µM

Q: With `N=c1sccn1CC(=O)Nc1ccc(S(=O)(=O)N2CCOCC2)cc1` as the molecule, how does the “activity change, negative = inhibition” value read?
A: inactive: -5.74%

Q: For `Cc1ccc(C(=O)Nc2nc3ccc(S(C)(=O)=O)cc3s2)s1`, which activity change, negative = inhibition is on record?
A: inconclusive: 22.2%

Q: With `CC1=C(C(=O)OCc2ccccc2)C(c2ccc([N+](=O)[O-])cc2)NC(=O)N1CCCCCC(=O)O` (centres undefined) as the molecule, how does the Potency read?
A: active: 10 µM

Q: Which “activity change, negative = inhibition” value does the source give for `N#Cc1cc2c(nc1SCC(=O)N1CCCCC1)CCCC2` here?
A: inactive: -2.92%

Q: Which activity change, negative = inhibition does the source give for `O=C(NC1CC1)c1ccc(S(=O)(=O)NC2CCCCCC2)cc1` here?
A: inconclusive: 27%

Q: Which activity change, negative = inhibition does the source give for `Cc1cc(C(=O)CN(Cc2ccc(F)cc2)S(=O)(=O)c2ccc3c(c2)OCCO3)c(C)n1C` here?
A: inconclusive: -7.56%

Q: For `CC(=O)C1C(c2ccccc2OC(F)F)NC(=O)NC1(O)C(F)(F)F` (centres undefined), which “activity change, negative = inhibition” value is on record?
A: inactive: -9.39%

Q: Which activity change, negative = inhibition does the source give for `Cc1ccc(S(=O)(=O)OC2CCN(C)CC2)cc1` here?
A: inconclusive: -1.13% [at 7.6 µM]

Q: Which Potency does the source give for `Cc1cc(C)n(-c2ccc(Cl)c(C(=O)OCC(=O)N3CCCCC3C)n2)n1` (centres undefined) here?
A: inconclusive: 10 µM [rising, single point]
